# Test results: the supplement of paper PMC9446081
# Out of some 39,000 compounds screened, about 220 (0.56%) showed activity. This is one part of the list.
# System: Escherichia coli K-12 BW25113
# Experiment: relative growth (OD600 normalised to plate interquartile mean) (fraction); higher = less growth inhibition, active = 0.2 or less
# Conditions: 50 µM; LB; incubation time: overnight (16-24 h)
# 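Further: static incubation at 37 °C against the wild-type strain, values averaged over two biological replicates.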
row,SMILES,relative growth
1,COc1c(-c2ccccc2)oc2cc(O)cc(O)c2c1=O,inactive: 0.998
2,CC(C)C[C@H](NC(=O)[C@H](CCc1ccccc1)NC(=O)CN1CCOCC1)C(=O)N[C@@H](Cc1ccccc1)C(=O)N[C@@H](CC(C)C)C(=O)[C@@]1(C)CO1,inactive: 1.13
3,COCC(=O)Nc1ccc2c(c1)CC(=O)N2,inactive: 0.985
4,C[C@H](CO)N1C[C@H](C)[C@@H](CN(C)S(=O)(=O)c2cccs2)OCCCC[C@H](C)Oc2ccc(NC(=O)Nc3ccc(C(F)(F)F)cc3)cc2C1=O,inactive: 1.02
5,COc1ccc(C#Cc2ccc3c(c2)[C@]2(C(=O)N3)[C@H](C(=O)N3CCCCCCC3)[C@H]3C(=O)O[C@H](c4ccccc4)[C@H](c4ccccc4)N3[C@@H]2c2ccc(O)cc2)cc1,inactive: 1.02
6,Cc1noc(C)c1NC(=O)N(C)C[C@@H]1Oc2c(NS(=O)(=O)c3cn(C)cn3)cccc2C(=O)N([C@H](C)CO)C[C@H]1C,inactive: 0.986
7,COc1ccc(NC(=O)Nc2ccc3c(c2)C(=O)N([C@@H](C)CO)C[C@H](C)[C@@H](CN(C)C(=O)Nc2ccc4c(c2)OCO4)OCCCC[C@H](C)O3)cc1,inactive: 1.04
8,COc1ccc(S(=O)(=O)N(C)C[C@H]2Oc3c(NC(=O)C4CCOCC4)cccc3C(=O)N([C@H](C)CO)C[C@@H]2C)cc1,inactive: 1.01
9,C[C@@H]1CN([C@@H](C)CO)C(=O)Cc2cc(NC(=O)Nc3ccc4c(c3)OCO4)ccc2O[C@H]1CN(C)S(C)(=O)=O,inactive: 0.979
10,C/C(=C\CC[C@@H](C)[C@H]1C[C@@H](O)[C@@]2(C)[C@H]3CC[C@H]4C(C)(C)[C@@H](O[C@@H]5O[C@@H](CO[C@H]6OC[C@@H](O)[C@@H](O)[C@@H]6O)[C@@H](O)[C@@H](O)[C@@H]5O)CC[C@@]45C[C@@]35C[C@@H](O)[C@]12C)C(=O)O[C@H]1O[C@@H](CO)[C@@H](O)[C@@H](O)[C@@H]1O,inactive: 1.04
11,C[C@@H]1CN([C@@H](C)CO)C(=O)Cc2cc(NC(=O)CCC(F)(F)F)ccc2O[C@@H]1CN(C)Cc1ccc(-c2ccccc2)cc1,inactive: 0.945
12,OC[C@H]1CC[C@@H]2O[C@H](CCc3ccc(C#CCc4ccccc4)cc3)[C@@H](n3cc(-c4ccccc4)nn3)C[C@@H]2O1,inactive: 1.02
13,Nc1ccc(S(=O)(=O)[O-])cc1.Nc1ccc(S(=O)(=O)[O-])cc1.[Zn+2],inactive: 1.03
14,CC(C)NC(=O)N(C)C[C@H]1Oc2ccc(NS(=O)(=O)c3ccc(Cl)cc3)cc2CC(=O)N([C@@H](C)CO)C[C@H]1C,inactive: 0.988
15,C[C@@H]1CN([C@H](C)CO)C(=O)c2cccc(NC(=O)C3CCOCC3)c2O[C@H]1CN(C)S(=O)(=O)c1cn(C)cn1,inactive: 0.994
16,Cc1noc(C)c1S(=O)(=O)Nc1cccc2c1O[C@H](CN(C)Cc1ccc(C(=O)O)cc1)[C@H](C)CN([C@@H](C)CO)C2=O,inactive: 0.911
17,COc1ccc(CN(C)C[C@H]2OCCCC[C@H](C)Oc3ccc(NC(=O)Nc4c(C)noc4C)cc3C(=O)N([C@@H](C)CO)C[C@@H]2C)cc1,inactive: 0.992
18,Cc1ccccc1S(=O)(=O)N1C[C@@H](O)COC[C@H]2O[C@H](CC(=O)N3CCC(Cc4ccccc4)CC3)CC[C@@H]21,inactive: 1.02
19,C[C@H]1CN([C@@H](C)CO)C(=O)Cc2cc(NC(=O)C3CC3)ccc2O[C@H]1CN(C)S(=O)(=O)c1cn(C)cn1,inactive: 1.02
20,CCc1c(C)[nH]c2ncnn2c1=O,inactive: 0.965

row,SMILES,relative growth
1,Cc1ccc(S(=O)(=O)N[C@H]2CC[C@H](CC(=O)N3CCC(Cc4ccccc4)CC3)O[C@@H]2CO)cc1,inactive: 1.03
2,CCCC(=O)Nc1ccc(OCC(O)CNC(C)C)c(C(C)=O)c1.Cl (stereo not drawn),inactive: 1.07
3,COc1ccc(S(=O)(=O)N(C)C[C@H]2Oc3ccc(NS(=O)(=O)c4c(C)noc4C)cc3C(=O)N([C@H](C)CO)C[C@@H]2C)cc1,inactive: 1
4,COc1ccc(S(=O)(=O)Nc2ccc3c(c2)C(=O)N([C@H](C)CO)C[C@@H](C)[C@@H](CN(C)S(=O)(=O)c2cn(C)cn2)OCCCC[C@H](C)O3)cc1,inactive: 1
5,C[C@H](CO)N1C[C@H](C)[C@H](CN(C)C(=O)c2ccncc2)OCCCC[C@H](C)Oc2ccc(NC(=O)NC3CCCCC3)cc2C1=O,inactive: 1.01
6,C[C@H](CO)N1C[C@H](C)[C@H](CN(C)S(=O)(=O)c2cn(C)cn2)Oc2c(NC(=O)c3nc4ccccc4s3)cccc2C1=O,inactive: 0.979
7,C[C@@H]1CCCCO[C@H](CN(C)S(=O)(=O)c2cccs2)[C@@H](C)CN([C@@H](C)CO)C(=O)c2cc(NC(=O)Nc3cccc4ccccc34)ccc2O1,inactive: 1.03
8,C[C@H](CO)N1C[C@H](C)[C@H](CN(C)Cc2cccc(C(F)(F)F)c2)OCc2ccccc2-c2ccccc2C1=O,inactive: 1.07
9,NC(=O)C12CC3C[C@@H](C1)C(=O)[C@@H](C3)C2,inactive: 1.02
10,C[C@H]1CN([C@@H](C)CO)C(=O)c2cc(NC(=O)Cc3ccccc3)ccc2O[C@@H]1CN(C)S(=O)(=O)c1cn(C)cn1,inactive: 1.02
11,COc1ccccc1C(=O)N1CCNCC1,inactive: 1.02
12,N[C@@H](Cc1ccccc1F)C(=O)O,inactive: 1.01
13,COC[C@H](O)CNNC(=O)OC(C)(C)C,inactive: 1.01
14,C[C@H](CO)N1C[C@H](C)[C@H](CN(C)C(=O)NC2CCCCC2)Oc2ccc(NS(C)(=O)=O)cc2CC1=O,inactive: 1.02
15,C[C@H]1CCCCO[C@H](CN(C)Cc2ccccc2)[C@@H](C)CN([C@@H](C)CO)C(=O)c2cc(NC(=O)Nc3ccc(C(F)(F)F)cc3)ccc2O1,inactive: 1.01
16,C[C@H]1CN([C@@H](C)CO)C(=O)Cc2cc(NC(=O)CCCN(C)C)ccc2O[C@H]1CN(C)S(=O)(=O)c1ccc(Cl)cc1,inactive: 0.99
17,C[C@H](CO)N1C[C@H](C)[C@H](CN(C)C(=O)Cc2ccccc2)OCCCC[C@H](C)Oc2ccc(NC(=O)Nc3ccccc3)cc2C1=O,inactive: 0.965
18,Cc1noc(C)c1S(=O)(=O)N(C)C[C@H]1Oc2ccc(NC(=O)C3CC3)cc2CC(=O)N([C@@H](C)CO)C[C@@H]1C,inactive: 1.01
19,COc1ccccc1-c1cccc(-c2nc(C(=O)Nc3nccs3)cc3c2[C@H](CCO)N(C(=O)CC2CC2)C3)c1,inactive: 1.06
20,CC(C)C[C@@H]1NC(=O)[C@H]2C[C@@H](C(=O)NCCCCCCNC(=O)CS)[C@@H](c3cccc(OCCO)c3)N2C1=O,inactive: 1.02

row,SMILES,relative growth
1,C[C@@H]1CCCCO[C@@H](CN(C)S(=O)(=O)c2ccccc2)[C@H](C)CN([C@@H](C)CO)C(=O)c2cc(NS(=O)(=O)c3cn(C)cn3)ccc2O1,inactive: 0.994
2,Cc1ccc(S(=O)(=O)N2C[C@H](O)COC[C@H]3O[C@@H](CC(=O)NCCN4CCCCC4)CC[C@@H]32)cc1,inactive: 1.04
3,Cc1ccc(S(=O)(=O)N[C@H](C(=O)NCCn2cc(C(=O)NO)nn2)C(C)C)cc1,inactive: 1.01
4,C[C@H](NC(=O)N(C)C[C@@H]1OCc2ccccc2-c2ccccc2C(=O)N([C@@H](C)CO)C[C@H]1C)c1ccccc1,inactive: 0.997
5,C[C@H]1CN([C@@H](C)CO)C(=O)c2cc(NC(=O)Nc3ccc(C(F)(F)F)cc3)ccc2O[C@H]1CN(C)Cc1ccncc1,inactive: 0.992
6,Nc1ncnc2c1ncn2[C@@H]1O[C@H](CO)[C@@H](O)[C@@H]1O,inactive: 0.998
7,COc1ccc(NC(=O)Nc2cccc3c2O[C@@H](CN(C)S(=O)(=O)c2cn(C)cn2)[C@@H](C)CN([C@@H](C)CO)C3=O)cc1,inactive: 1
8,C[C@@H]1CN([C@@H](C)CO)C(=O)c2cc(NC(=O)Cc3ccccc3)ccc2O[C@@H](C)CCCCO[C@H]1CN(C)C(=O)Nc1ccccc1,inactive: 1.03
9,COCC(=O)N1C[C@@H](C)[C@@H](OC)CN(C)C(=O)c2cc(NC(=O)c3cc(C)on3)ccc2OC[C@H]1C,inactive: 0.975
10,C[C@H]1CN([C@@H](C)CO)C(=O)c2cccc(NC(=O)c3ccc(-c4nccs4)cc3)c2O[C@@H]1CN(C)Cc1ccc(Cl)c(Cl)c1,inactive: 1.01
11,COc1ccc2c3c([nH]c2c1)[C@H](CO)N(C[C@]13CCN(CCc2ccccc2)CC1)C(=O)CN1CCOCC1,inactive: 1.01
12,O=C(C[C@H]1C[C@@H]2c3cc(NS(=O)(=O)c4ccc(F)cc4)ccc3O[C@@H]2[C@H](CO)O1)NC1CCCCC1,inactive: 0.983
13,C[C@H](CO)N1C[C@H](C)[C@H](CN(C)S(C)(=O)=O)Oc2ccc(NC(=O)CCN3CCOCC3)cc2CC1=O,inactive: 0.978
14,Cc1sc2ncnc(N3CCC(Cn4cc(C(C)(C)N)nn4)CC3)c2c1C,inactive: 1.01
15,Cc1noc(C)c1S(=O)(=O)Nc1ccc2c(c1)C(=O)N([C@@H](C)CO)C[C@H](C)[C@@H](CN(C)S(C)(=O)=O)O2,inactive: 0.986
16,C[C@H](CO)N1C[C@H](C)[C@@H](CN(C)C(=O)Nc2cccc3ccccc23)OCCCC[C@H](C)Oc2ccc(NC(=O)c3ccccc3)cc2C1=O,inactive: 1.02
17,Cc1noc(C)c1S(=O)(=O)N(C)C[C@H]1Oc2ccc(NS(C)(=O)=O)cc2C(=O)N([C@@H](C)CO)C[C@H]1C,inactive: 0.989
18,C[C@H]1CN([C@@H](C)CO)C(=O)c2cc(C#CCN(C)C)cnc2O[C@H]1CN(C)Cc1ccc2c(c1)OCO2,inactive: 0.972
